The other results are listed elsewhere or left out.
Columns and labels:
HSkMC = human skeletal muscle cells; experiment: cytotoxicity call (relative viability < 0.9); settings: 10 µM
HepG2 = experiment: cytotoxicity call (relative viability < 0.9); settings: 10 µM
S. aureus RN4220 = experiment: growth inhibition call (relative growth <= 0.2); settings: 50 µM

Q: What does the source list for `O=C(C[C@H]1C[C@@H]2c3cc(NC(=O)c4ccc5c(c4)OCO5)ccc3O[C@@H]2[C@H](CO)O1)NCCc1ccccc1`?
A: cytotoxicity call (HSkMC): inactive; cytotoxicity call (HepG2): inactive; growth inhibition call (S. aureus RN4220): inactive

Q: For `COc1ccc(CN(C)C[C@H]2OCCCC[C@H](C)Oc3ccc(NC(=O)Nc4c(C)noc4C)cc3C(=O)N([C@@H](C)CO)C[C@H]2C)cc1`, which cytotoxicity call (HSkMC) is on record?
A: inactive

Q: And the cytotoxicity call (HepG2)?
A: inactive

Q: What about the growth inhibition call (S. aureus RN4220) of the same compound?
A: inactive

Q: Which results are given for `Cc1noc(C)c1NC(=O)Nc1ccc2c(c1)C(=O)N([C@H](C)CO)C[C@@H](C)[C@@H](CN(C)Cc1ccc(Cl)c(Cl)c1)OCCCC[C@H](C)O2`?
A: cytotoxicity call (HSkMC): active; cytotoxicity call (HepG2): active; growth inhibition call (S. aureus RN4220): inactive

Q: Which cytotoxicity call (HSkMC) does the source give for `CC(C)N1CC[C@H](CN(C)Cc2ccc(Oc3ccccc3)cc2)Oc2c(NC(=O)c3ccncc3)cccc2C1=O` here?
A: inactive

Q: And the cytotoxicity call (HepG2)?
A: inactive

Q: And the growth inhibition call (S. aureus RN4220)?
A: inactive

Q: For `C[C@@H]1CN([C@H](C)CO)C(=O)c2cccc(NC(=O)c3ccc(-c4nccs4)cc3)c2O[C@H]1CN(C)C(=O)Nc1ccc(F)cc1`, which cytotoxicity call (HSkMC) is on record?
A: inactive

Q: What about the cytotoxicity call (HepG2) of the same compound?
A: inactive

Q: What about the growth inhibition call (S. aureus RN4220) of the same compound?
A: inactive

Q: With `C[C@H](CO)N1C[C@H](C)[C@H](CN(C)C(=O)C2CCCCC2)OCCCC[C@H](C)Oc2ccc(NC(=O)Nc3ccccc3)cc2C1=O` as the compound, how does the cytotoxicity call (HSkMC) read?
A: inactive

Q: And the cytotoxicity call (HepG2)?
A: inactive

Q: And the growth inhibition call (S. aureus RN4220)?
A: inactive

Q: `C[C@H]1CN([C@@H](C)CO)C(=O)c2cc(NC(=O)CCN3CCOCC3)ccc2O[C@@H]1CN(C)S(=O)(=O)c1cn(C)cn1` was tested. Which cytotoxicity call (HSkMC) did it give?
A: inactive

Q: What about the cytotoxicity call (HepG2) of the same compound?
A: inactive

Q: And the growth inhibition call (S. aureus RN4220)?
A: inactive

Q: Which results are given for `C[C@@H]1CN([C@@H](C)CO)C(=O)Cc2cc(NC(=O)CCCCCC(=O)Nc3ccccc3N)ccc2O[C@H]1CN(C)C(=O)Nc1ccc(C(F)(F)F)cc1`?
A: cytotoxicity call (HSkMC): inactive; cytotoxicity call (HepG2): inactive; growth inhibition call (S. aureus RN4220): inactive

Q: How did the cytotoxicity call (HSkMC) turn out when `CCc1cc(C(N)=S)ccn1` was run?
A: inactive

Q: And the cytotoxicity call (HepG2)?
A: inactive

Q: And the growth inhibition call (S. aureus RN4220)?
A: inactive

Q: `CCSc1cccc2cccnc12` was tested. Which cytotoxicity call (HSkMC) did it give?
A: inactive

Q: And the cytotoxicity call (HepG2)?
A: inactive

Q: And the growth inhibition call (S. aureus RN4220)?
A: inactive

Q: With `CCC1(C(=O)O)CCNCC1` as the compound, how does the cytotoxicity call (HSkMC) read?
A: inactive

Q: And the cytotoxicity call (HepG2)?
A: inactive

Q: What about the growth inhibition call (S. aureus RN4220) of the same compound?
A: inactive

Q: Which results are given for `CCC(=O)Nc1cnc(OC)nc1OC`?
A: cytotoxicity call (HSkMC): inactive; cytotoxicity call (HepG2): inactive; growth inhibition call (S. aureus RN4220): inactive

Q: Which results are given for `COc1ccc(NC(=O)N2C[C@@H](O)COC[C@@H]3O[C@@H](CC(=O)NCc4ccccc4OC)CC[C@H]32)cc1`?
A: cytotoxicity call (HSkMC): inactive; cytotoxicity call (HepG2): inactive; growth inhibition call (S. aureus RN4220): inactive

Q: Which results are given for `C[C@H](CO)N1C[C@H](C)[C@@H](CN(C)C(=O)NC2CCCCC2)Oc2ccc(NC(=O)CCN3CCOCC3)cc2CC1=O`?
A: cytotoxicity call (HSkMC): inactive; cytotoxicity call (HepG2): inactive; growth inhibition call (S. aureus RN4220): inactive

Q: Which cytotoxicity call (HSkMC) does the source give for `C[C@@H]1CCCCO[C@@H](CN(C)S(=O)(=O)c2ccc(F)cc2)[C@@H](C)CN([C@@H](C)CO)C(=O)c2cc(NC(=O)Cc3ccccc3)ccc2O1` here?
A: inactive

Q: And the cytotoxicity call (HepG2)?
A: active

Q: And the growth inhibition call (S. aureus RN4220)?
A: inactive

Q: `C[C@@H]1CCCCO[C@H](CN(C)C(=O)CCCN(C)C)[C@@H](C)CN([C@H](C)CO)C(=O)c2cc(NC(=O)Nc3cccc4ccccc34)ccc2O1` was tested. Which cytotoxicity call (HSkMC) did it give?
A: inactive

Q: And the cytotoxicity call (HepG2)?
A: inactive

Q: What about the growth inhibition call (S. aureus RN4220) of the same compound?
A: inactive

Q: Which results are given for `C[C@@H]1CCCCO[C@H](CN(C)Cc2ccc(C(F)(F)F)cc2)[C@@H](C)CN([C@H](C)CO)C(=O)c2cc(NS(=O)(=O)c3ccccc3)ccc2O1`?
A: cytotoxicity call (HSkMC): inactive; cytotoxicity call (HepG2): inactive; growth inhibition call (S. aureus RN4220): inactive

Q: Which results are given for `CC(=O)N[C@@H](CCC(N)=O)C(=O)O`?
A: cytotoxicity call (HSkMC): inactive; cytotoxicity call (HepG2): inactive; growth inhibition call (S. aureus RN4220): inactive

Q: With `CC(C)C[C@@](O)(CC(=O)O)C(=O)O` as the compound, how does the cytotoxicity call (HSkMC) read?
A: inactive

Q: And the cytotoxicity call (HepG2)?
A: inactive

Q: And the growth inhibition call (S. aureus RN4220)?
A: inactive

Q: How did the cytotoxicity call (HSkMC) turn out when `C[C@@H]1CCCCO[C@@H](CN(C)C(=O)c2ccccc2)[C@H](C)CN([C@H](C)CO)C(=O)c2cc(NC(=O)Cc3ccccc3)ccc2O1` was run?
A: inactive

Q: What about the cytotoxicity call (HepG2) of the same compound?
A: inactive

Q: And the growth inhibition call (S. aureus RN4220)?
A: inactive

Q: Which cytotoxicity call (HSkMC) does the source give for `C=CCOC(=O)[C@H]1[C@@H]2C(=O)O[C@@H](c3ccccc3)[C@@H](c3ccccc3)N2[C@@H](c2ccc(OCCOC(=O)[C@@H]3C[C@@H]4C(=O)NCC(=O)N4[C@@H]3c3cccc(OCCO)c3)cc2)[C@]12C(=O)Nc1ccc(I)cc12` here?
A: inactive

Q: What about the cytotoxicity call (HepG2) of the same compound?
A: inactive

Q: What about the growth inhibition call (S. aureus RN4220) of the same compound?
A: inactive

Q: How did the cytotoxicity call (HSkMC) turn out when `C[C@@H]1CCCCO[C@@H](CN(C)C(=O)Nc2ccc3c(c2)OCO3)[C@@H](C)CN([C@@H](C)CO)C(=O)c2cc(NS(=O)(=O)c3ccccc3)ccc2O1` was run?
A: inactive

Q: What about the cytotoxicity call (HepG2) of the same compound?
A: inactive

Q: What about the growth inhibition call (S. aureus RN4220) of the same compound?
A: inactive

Q: What does the source list for `CC(=O)N(C)C[C@@H]1Oc2ncc(C#CC(C)(C)O)cc2C(=O)N([C@H](C)CO)C[C@@H]1C`?
A: cytotoxicity call (HSkMC): inactive; cytotoxicity call (HepG2): inactive; growth inhibition call (S. aureus RN4220): inactive

Q: Which cytotoxicity call (HSkMC) does the source give for `C[C@H]1CN([C@@H](C)CO)C(=O)c2cc(C#CCN(C)C)cnc2O[C@@H]1CN(C)C(=O)Nc1ccccc1F` here?
A: inactive

Q: And the cytotoxicity call (HepG2)?
A: inactive

Q: What about the growth inhibition call (S. aureus RN4220) of the same compound?
A: inactive

Q: What does the source list for `C[C@H](CO)N1C[C@H](C)[C@H](CN(C)CC2CC2)OCCCC[C@H](C)Oc2ccc(NC(=O)Nc3ccccc3)cc2C1=O`?
A: cytotoxicity call (HSkMC): inactive; cytotoxicity call (HepG2): inactive; growth inhibition call (S. aureus RN4220): inactive

Q: Which cytotoxicity call (HSkMC) does the source give for `Clc1ccc(CSC(Cn2ccnc2)c2ccc(Cl)cc2Cl)cc1.O=[N+]([O-])O` (stereo not drawn) here?
A: active

Q: And the cytotoxicity call (HepG2)?
A: active

Q: And the growth inhibition call (S. aureus RN4220)?
A: inactive

Q: How did the cytotoxicity call (HSkMC) turn out when `CC(C)NC(=O)N(C)C[C@H]1Oc2cc(-c3ccccc3F)ccc2S(=O)(=O)N([C@@H](C)CO)C[C@@H]1C` was run?
A: inactive

Q: And the cytotoxicity call (HepG2)?
A: inactive

Q: And the growth inhibition call (S. aureus RN4220)?
A: inactive

Q: Which cytotoxicity call (HSkMC) does the source give for `Cc1ccccc1-c1ccc(N)cc1` here?
A: inactive

Q: What about the cytotoxicity call (HepG2) of the same compound?
A: inactive

Q: What about the growth inhibition call (S. aureus RN4220) of the same compound?
A: inactive

Q: Which results are given for `CC(C)n1c(C=CC(O)CC(O)CC(=O)[O-])c(-c2ccc(F)cc2)c2ccccc21.[Na+]` (stereo not drawn)?
A: cytotoxicity call (HSkMC): inactive; cytotoxicity call (HepG2): active; growth inhibition call (S. aureus RN4220): inactive

Q: Which cytotoxicity call (HSkMC) does the source give for `CCCCN[C@H]1CCS(=O)(=O)C1` here?
A: inactive

Q: What about the cytotoxicity call (HepG2) of the same compound?
A: inactive

Q: What about the growth inhibition call (S. aureus RN4220) of the same compound?
A: inactive

Q: Which cytotoxicity call (HSkMC) does the source give for `COCC#Cc1ccc2c(c1)O[C@@H](CN(C)C(=O)Nc1ccccc1F)[C@@H](C)CN([C@H](C)CO)S2(=O)=O` here?
A: inactive

Q: What about the cytotoxicity call (HepG2) of the same compound?
A: inactive

Q: And the growth inhibition call (S. aureus RN4220)?
A: inactive

Q: For `O=C(C[C@H]1C[C@H]2c3cc(NC(=O)C4CCOCC4)ccc3O[C@H]2[C@@H](CO)O1)NCc1ccc(Cl)cc1`, which cytotoxicity call (HSkMC) is on record?
A: inactive

Q: What about the cytotoxicity call (HepG2) of the same compound?
A: inactive

Q: What about the growth inhibition call (S. aureus RN4220) of the same compound?
A: inactive

Q: `COc1ccc(CN(C)C[C@H]2Oc3c(NC(=O)Nc4cccc5ccccc45)cccc3C(=O)N([C@@H](C)CO)C[C@H]2C)cc1` was tested. Which cytotoxicity call (HSkMC) did it give?
A: inactive

Q: And the cytotoxicity call (HepG2)?
A: inactive

Q: What about the growth inhibition call (S. aureus RN4220) of the same compound?
A: inactive

Q: How did the cytotoxicity call (HSkMC) turn out when `Cc1ccc(Cn2c3ccccc3c3ccccc32)cc1` was run?
A: inactive

Q: And the cytotoxicity call (HepG2)?
A: inactive

Q: And the growth inhibition call (S. aureus RN4220)?
A: inactive

Q: For `CCS(=O)(=O)N1C[C@]2(CCN(CC2)S(=O)(=O)c2cn(cn2)C)c2c(n(c3cc(ccc23)OC)C)[C@H]1CO`, which cytotoxicity call (HSkMC) is on record?
A: inactive

Q: And the cytotoxicity call (HepG2)?
A: inactive

Q: What about the growth inhibition call (S. aureus RN4220) of the same compound?
A: inactive

Q: `C[C@@H]1CN([C@@H](C)CO)C(=O)c2cc(NC(=O)CCN3CCOCC3)ccc2O[C@@H]1CN(C)CC1CC1` was tested. Which cytotoxicity call (HSkMC) did it give?
A: inactive

Q: And the cytotoxicity call (HepG2)?
A: inactive

Q: What about the growth inhibition call (S. aureus RN4220) of the same compound?
A: inactive

— the antibiotic and cytotoxicity screens of Wong et al. (2023)
